Several values for one entry are separate records, joined by “and”; a condition that tells them apart may be missing. Equal entries are not always repeated. The whole screen tested about 340,000 compounds, of which about 12,000 (3.5%) were called active. Inconclusive means that the source gave no clear call. Such entries were picked first, then a sample of the others. Calls follow the shape of the dose curve; as a rule, active = well fitted inhibition curve with a large enough effect; inconclusive = small, poorly fitted or top-dose-only effect, or another doubt; inactive = no such curve, though single readings can be large or run the other way. Potencies of inconclusive entries are doubtful fits and often do not repeat.
Test: qHTS Assay for Inhibitors of Hepatitis C Virus (HCV)
Details: Huh7.5.1 HCVcc-Cre (HCVcc is cell-culture hepatitis C virus) infection, luciferase reporter, 44 h; activity change, negative = inhibition: at 41.8 µM (top of the series) unless noted
In short: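 Antiviral activity was scored by luciferase reporter output from cells infected with HCVcc-Cre (~0.5 moi) in presence of compound, 44 h infection period, cells seeded 1,000/well 4 h prior.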
% is scaled to controls: 0 for no effect and ±100 for the full control effect; potency is read from the fitted curve at half-maximal effect; tags tell the direction and shape of the fitted curve.

Row | Compound | Potency | activity change, negative = inhibition
1 | CCNC(=O)c1c(NC(=O)c2cc(-c3cc(C)ccc3O)n[nH]2)sc2c1CCCC2 | inconclusive: 3.98 µM [inhibitor, single point] | 
2 | COc1cc(/C(C)=N/NC(=O)c2ccc(CSc3nncn3C)cc2)cc(OC)c1OC |  | inactive: 4.96%
3 | CC(=O)c1sc(NC(=O)COc2ccc(C)c(C)c2)nc1C | inconclusive: 10 µM [inhibitor, partial curve] | 
4 | Fc1ccc(NC(=S)NN=Cc2ccccc2Cl)cc1 |  | inactive: -27.5%
5 | CN(c1ccccc1)c1nc(N)c([N+](=O)[O-])c(Nc2ccccc2F)n1 | active: 5.62 µM | 
6 | CCOC(=O)Cn1c(=NC(=O)CSC(C)=O)sc2cc(F)ccc21 |  | inactive: -4.65%
7 | O=C(/C=C/c1ccc(-c2cccc([N+](=O)[O-])c2)o1)N1CCOCC1 | inconclusive: 5.01 µM [inhibitor, partial curve] | 
8 | O=C(CS)Nc1ccc2ccccc2c1 | inconclusive: 5.62 µM [inhibitor, single point] | 
9 | CCC(=O)N1CCc2cc(Br)c(S(=O)(=O)NCCN3CCCCC3CC)cc21 (stereo not given) |  | inactive: 0.826%
10 | COc1ccccc1C(=O)NCCC(=O)Nc1ccc(S(=O)(=O)N2CCCC(C)C2)cc1 (stereo not given) | inconclusive: 12.6 µM [inhibitor, partial curve] | 
11 | Cc1ccc(NC(=O)C2CC(=O)N(c3ccc4c(c3)OCCO4)C2)cc1S(=O)(=O)N(C)C (stereo not given) | inconclusive: 7.08 µM [inhibitor, partial curve] | 
12 | Cc1ccc(C(=O)Nc2ccc(N3CCOCC3)cc2)cc1 | inconclusive: 31.6 µM [inhibitor, single point] | 
13 | COc1ccc(CC(=O)NNS(=O)(=O)c2ccc(F)cc2)cc1 |  | inactive: -9.46%
14 | O=C(CN1CCN(S(=O)(=O)c2ccc(F)c(Cl)c2)CC1)N1CCc2ccccc21 | inconclusive: 1.58 µM [inhibitor, partial curve] | 
15 | CCOC(=O)CS(=O)(=O)c1nc(-c2ccc(F)cc2)cc(C(F)(F)F)n1 | active: 10 µM | 
16 | CCOC(=O)c1ccc(NC(=O)CSC2=NN3CCCC(=O)N=C3S2)cc1 | inconclusive: 11.2 µM [inhibitor, partial curve] | 
17 | Cc1cc(NC(=O)COc2ccccc2C#N)no1 |  | inactive: 10.6%
18 | COc1ccc(CN2CCN(C(=O)CCC(=O)Nc3nnc(C4CCCCC4)s3)CC2)cc1F | inconclusive: 10 µM [inhibitor, partial curve] | 
19 | COCCNC(=O)CSc1nc(-c2ccc(OC)c(OC)c2)cc(C(F)(F)F)n1 | inactive and inconclusive: 14.1 µM [inhibitor, single point] | 
20 | COc1ccc(-c2nc(C#N)c(N3CCOCC3)o2)cc1OC | inconclusive: 3.16 µM [inhibitor, single point] | 
21 | CNc1snc(C)c1C(=O)OCC(=O)N(C)Cc1ccccc1 | inconclusive: 14.1 µM [inhibitor, single point] | 
22 | Cc1cc(C)n2nc(/C(C#N)=C/c3ccccc3)c(C#N)c2n1 | inconclusive: 0.891 µM [inhibitor, full curve] | 
23 | S=C1SCN(Cc2ccco2)CN1Cc1ccco1 | active: 14.1 µM | 

Row | Compound | Potency | activity change, negative = inhibition
24 | COc1ccc(Nc2ncc3c(n2)CC(c2ccc(OC)cc2)CC3=O)cc1 (stereo not given) | inconclusive: 3.16 µM [inhibitor, single point] | 
25 | CCC(Sc1nc2ncccc2[nH]1)C(=O)NCCc1ccccc1 (stereo not given) |  | inactive: -6.45%
26 | N#C/C(=C(/O)CCl)c1nc2c(s1)CCc1ccccc1-2 | inconclusive: 22.4 µM [inhibitor, single point] | 
27 | CC(=O)Nc1ccccc1OCC(=O)N(Cc1ccccc1)C(C)C | active: 15.8 µM | 
28 | N#CCC(CNc1ncc(C(F)(F)F)cc1Cl)OC(=O)c1ccc(Cl)cc1Cl (stereo not given) |  | inactive: 6.87%
29 | CN(C)CCNC(=O)c1onc(CSc2ccc(F)cc2)c1C(=O)NCCN(C)C | inconclusive: 14.1 µM [inhibitor, single point] | 
30 | CC12CCC(=O)C=C1CCC1C2CCC2(C)C1CCC2(O)C(=O)CO (stereo not given) |  | inactive: -12.9%
31 | O=C(NC1CCCCC1)C1c2ccccc2C(=O)N1Cc1ccco1 (stereo not given) | inconclusive: 25.1 µM [inhibitor, partial curve] | 
32 | CCOc1ccc(S(=O)(=O)NCc2ccncc2)cc1NC(=O)c1ccccc1F | inconclusive: 2 µM [inhibitor, single point] | 
33 | CN(Cc1cccc2cnccc12)C(=O)c1cc(COc2ccc(F)cc2F)on1 | active: 8.91 µM | 
34 | CCOC(=O)C1(CCCc2ccccc2)CCN(Cc2cnc(C)s2)CC1 | inconclusive: 31.6 µM [inhibitor, single point] | 
35 | CCCCOP(=O)(c1ccc(N(C)C)cc1)C(Nc1ccccc1)c1ccccc1 (stereo not given) | inconclusive: 31.6 µM [inhibitor, single point] | 
36 | COc1ccc(/C=C2\SC(=S)N(CCCC(=O)NNC(=O)c3ccccc3O)C2=O)cc1 | inconclusive: 25.1 µM [inhibitor, partial curve] | 
37 | O=C(COC(=O)C1CC(=O)N(c2ccc3c(c2)OCCO3)C1)NC1CCCc2ccccc21 (stereo not given) |  | inactive: -1.05%
38 | CCC(C)n1c(SCC(=O)NC(=O)Nc2ccc3c(c2)OCCO3)nc2ccccc2c1=O (stereo not given) | inconclusive: 31.6 µM [inhibitor, single point] | 
39 | C=C(C)c1cccc(C(C)(C)NC(=O)Nc2cc(C)ccc2OC)c1 | inconclusive: 10 µM [inhibitor, partial curve] | 
40 | O=C(c1cccc(Oc2ccccc2)c1)N1CCN(c2ccccn2)CC1 | inconclusive: 31.6 µM [inhibitor, single point] | 
41 | CC(=O)OC1CCC2(C)C(=CCC3C4CC(=O)N(O)C(=O)C4(C)CCC32)C1 (stereo not given) |  | inactive: 11.9%
42 | Cc1ccc(S(=O)(=O)c2nc(-c3ccccc3Br)oc2N(C)C)cc1 | inconclusive: 31.6 µM [inhibitor, single point] | 
43 | CSCCC(NS(=O)(=O)c1ccc(C)cc1)C(=O)NCC(C)(C)N1CCOCC1 (stereo not given) | inconclusive: 3.16 µM [inhibitor, single point] | 
44 | CCOC(=O)c1sc(NC(=S)NC(=O)C2CC2)cc1C | inconclusive: 22.4 µM [inhibitor, single point] | 
45 | C1=C(CCNc2ncnc3c2[nH]c2ccccc23)CCCC1 | active: 1.12 µM | 

— PubChem BioAssay AID651820 (National Center for Advancing Translational Sciences (NCATS), 2012)
